Patent US20240343802A1 (Zymeworks, published 2024)

What was measured:
[1] = target: T1, CD19 on CD19-expressing Raji B cells (human, UniProt P15391 20-556); experiment: whole cell binding by FACS on Raji B cells ('Binding curves anti-CD19'), RFU against concentration (nM, log axis)
T1 construct: whole, on cells
T1 sequence (looked up): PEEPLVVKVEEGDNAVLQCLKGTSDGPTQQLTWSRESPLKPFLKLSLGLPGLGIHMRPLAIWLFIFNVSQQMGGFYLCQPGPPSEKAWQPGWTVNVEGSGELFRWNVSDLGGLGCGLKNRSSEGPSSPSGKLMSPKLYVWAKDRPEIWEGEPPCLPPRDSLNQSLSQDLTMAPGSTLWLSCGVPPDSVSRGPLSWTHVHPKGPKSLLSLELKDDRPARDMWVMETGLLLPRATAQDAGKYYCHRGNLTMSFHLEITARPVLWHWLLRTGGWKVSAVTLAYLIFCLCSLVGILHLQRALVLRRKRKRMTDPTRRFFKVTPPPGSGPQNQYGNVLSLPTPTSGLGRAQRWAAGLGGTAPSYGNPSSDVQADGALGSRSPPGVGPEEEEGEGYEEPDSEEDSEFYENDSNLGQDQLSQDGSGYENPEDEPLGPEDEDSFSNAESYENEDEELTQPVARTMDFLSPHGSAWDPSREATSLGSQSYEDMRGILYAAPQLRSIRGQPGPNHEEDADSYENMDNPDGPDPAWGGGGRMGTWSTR

[2] = target: T1, CD19 on CD19-expressing Raji B cells; experiment: FACS, Raji cells

B1: v1380, anti-CD19 BiTE (VL-VH) scFv / anti-CD3 BiTE (VH-VL) scFv heterodimeric Fc with L234A_L235A (bispecific antibody)
chain 1: DIQLTQSPASLAVSLGQRATISCKASQSVDYDGDSYLNWYQQIPGQPPKLLIYDASNLVSGIPPRFSGSGSGTDFTLNIHPVEKVDAATYHCQQSTEDPWTFGGGTKLEIKGGGGSGGGGSGGGGSQVQLQQSGAELVRPGSSVKISCKASGYAFSSYWMNWVKQRPGQGLEWIGQIWPGDGDTNYNGKFKGKATLTADESSSTAYMQLSSLASEDSAVYFCARRETTTVGRYYYAMDYWGQGTTVTVSSA[no letters for human IgG1 Fc with changes]
chain 2: not shown
notes: copies: 1 + 1
Question: Which “EC50 (read off the curve)” value [1] does the source give for B1 here?
Answer: ~3 nM

Question: And the Bmax [2]?
Answer: 9960

Question: What about the Kd [2] of the same binder?
Answer: 2.95 nM
